# Measured values as given in PMC10002220, “In Vivo Reversal of P-Glycoprotein-Mediated Drug Resistance in a Breast Cancer Xenograft and in Leukemia Models Using a Novel, Potent, and Nontoxic Epicatechin EC31” (International Journal of Molecular Sciences, 2023).
# Key:
# [1] = target: T1, P-gp (Homo sapiens, UniProt P08183); experiment: Vanadate-sensitive P-gp ATPase activity assay (P-gp-Glo)
# [2] = target: T1, P-gp; experiment: EC50 for reversing drug resistance in LCC6MDR cells (cell proliferation assay); conditions: EC50 for Reversing MDR
# [3] = tested on: P-gp; experiment: EC50 for reversing drug resistance in P388ADR cells (cell proliferation assay)
# [4] = target: T1, P-gp; experiment: EC50 for reversing drug resistance in K562/P-gp cells (cell proliferation assay); conditions: EC50 for Reversing MDR
# [5] = tested on: P-gp; experiment: EC50 for reversing drug resistance, summarised over the three P-gp-overexpressing cell lines; conditions: read-out: EC50 of P-gp-modulating activity; as stated in the abstract
# [6] = target: T1, P-gp; experiment: Intracellular DOX accumulation in LCC6MDR cells; type: cell-based; design: expressed in transfected cells; host or cells: MDA435/LCC6MDR (human breast cancer line, gift of Dr. Robert Clarke); conditions: 1 µM; P-gp-overexpressing cells, cell line not specified
# Experimental: Figure 2 Effect of methylated catechin derivatives on intracellular DOX accumulation and DOX efflux in the P-gp-overexpressing cancer cells. […] Then, the cells were washed, and the intracellular DOX level was measured using flow cytometer. (A) LCC6MDR, (B) P388ADR, and (C) K562/P-gp. […] (D) In the efflux study, P388ADR cells were firstly incubated with 20 µM DOX for 45 min. […] At 60, 120, and 180 min, the cells were harvested, and the intracellular DOX level was measured. At 180 min, ** represents p < 0.01, and *** represents p < 0.001, both being relative to P388ADR incubated with DMSO only. […] N = 3 independent experiments. DMSO was used as a solvent control, and the highest amount used was 0.5%.
# [7] = target: T1, P-gp; design: expressed in transfected cells; host or cells: MDA435/LCC6MDR (human breast cancer line, gift of Dr. Robert Clarke); conditions: EGCG at 10 μM; IC50 of PTX without/with modulator; cited from earlier work
# [8] = tested on: P-gp; design: method as in doi:10.1016/j.jff.2011.05.005; conditions: cited from earlier work
# [9] = tested on: LCC6 cells; experiment: Drug resistance level: IC50 of anticancer drugs in LCC6; type: cell-based; conditions: Homo sapiens, LCC-6, 72 h; 3 days incubation
# Experimental: (§1) In the Western blot membrane, the total P-gp and β-actin expression in each lane was quantified with ImageJ software. The relative P-gp expression was an intensity ratio of P-gp band relative to the β-actin band. The relative P-gp expression of the resistant cell line relative to its respective wild type was presented as a bar chart. The plasma membrane P-gp levels of LCC6MDR and K562/P-gp relative to their wild types were determined through flow cytometry using antihuman P-gp-PE antibodies. (B) LCC6MDR and LCC6. (C) K562/P-gp and K562. (D) the drug resistance levels of three P-gp-overexpressing cell lines and their wild types were studied. The 3 pairs of cell lines were incubated with anticancer drugs paclitaxel (PTX), doxorubicin (DOX), and vincristine (VCR) for 3 days, and the % of cell survival was then determined. Their IC50 (nM) values were calculated using Prism 5.0. RF (relative fold) was a ratio of IC50 of anticancer drugs in a P-gp-overexpressing cell line relative to its respective wild type. N = 3 independent experiments. […] All cell lines were counterstained with DAPI. (E) LCC6 and LCC6MDR, (F) P388 and P338ADR, and (G) K562 and K562/P-gp. Bar = 8 µm. / = not determined.
# [10] = tested on: LCC6MDR cells; experiment: Drug resistance level: IC50 of anticancer drugs in LCC6MDR; type: cell-based, human
# Experimental: as §1
# [11] = tested on: P388ADR cells; experiment: Drug resistance level: IC50 of anticancer drugs in P388ADR; type: cell-based, mouse
# Experimental: as §1
# [12] = Effect of modulators on the PK of PTX; type: in vivo, BALB/c mice; conditions: BALB/c, mouse, plasma, iv; PTX 12 mg/kg i.v. alone; read-out: AUC of PTX (AUC0–420min) (converted)
# [13] = tested on: LCC6MDR xenograft; experiment: In vivo efficacy in reversing PTX resistance in LCC6MDR tumor xenograft model; conditions: PTX alone 12 mg/kg i.v., q2d x 14
# Experimental: (A) In vivo toxicity study of EC31 alone and of its combination with PTX was conducted. BALB/c mice were randomized into five groups with five mice in each group. Body weight of BALB/c mice during treatments was measured every two days. The treatment groups included (1) solvent control (5% NMP + 5% Cremophor EL + 90% PBS to dissolve EC31 and 5% Ethanol + 5% Cremophor EL + 90% PBS to dissolve PTX), (2) PTX (12 mg/kg i.v.), (3) EC31 (30 mg/kg i.p.), (4) EC31 (30 mg/kg i.p.) + PTX (12 mg/kg i.v.), or (5) EC31 (60 mg/kg i.p.) + PTX (12 mg/kg i.v.). The administration was performed every other day 12 times (q2d x 12). The loss of body weight or appetite and treatment-related mortality were monitored and defined as toxicity. […] The tumors were taken out, and their weights were measured. Intratumor concentration of EC31 or PTX was measured using UPLC-MS/MS, and the actual concentration of PTX or EC31 was normalized to the tumor weight. […] Tumor volume and body weight were monitored throughout the treatment period. […] The tumor volume, tumor weight, and doubling time were measured. The number of animal deaths was recorded during the treatment period. […]
# The LCC6MDR tumor xenograft model was studied as it was previously. […] Tumor growth was measured with an electronic caliper on the injection day, and the tumor volume was calculated as reported previously.
# [14] = target: T1, P-gp; experiment: Intracellular EC31 or PTX accumulation in LCC6 versus LCC6MDR cells; type: cell-based; design: expressed in transfected cells; host or cells: MDA435/LCC6MDR (human breast cancer line, gift of Dr. Robert Clarke); conditions: 150 min
# Source text: N = 3 independent experiments.
# [15] = tested on: P-gp; conditions: cited from earlier work
# T1 sequence (P08183 whole entry): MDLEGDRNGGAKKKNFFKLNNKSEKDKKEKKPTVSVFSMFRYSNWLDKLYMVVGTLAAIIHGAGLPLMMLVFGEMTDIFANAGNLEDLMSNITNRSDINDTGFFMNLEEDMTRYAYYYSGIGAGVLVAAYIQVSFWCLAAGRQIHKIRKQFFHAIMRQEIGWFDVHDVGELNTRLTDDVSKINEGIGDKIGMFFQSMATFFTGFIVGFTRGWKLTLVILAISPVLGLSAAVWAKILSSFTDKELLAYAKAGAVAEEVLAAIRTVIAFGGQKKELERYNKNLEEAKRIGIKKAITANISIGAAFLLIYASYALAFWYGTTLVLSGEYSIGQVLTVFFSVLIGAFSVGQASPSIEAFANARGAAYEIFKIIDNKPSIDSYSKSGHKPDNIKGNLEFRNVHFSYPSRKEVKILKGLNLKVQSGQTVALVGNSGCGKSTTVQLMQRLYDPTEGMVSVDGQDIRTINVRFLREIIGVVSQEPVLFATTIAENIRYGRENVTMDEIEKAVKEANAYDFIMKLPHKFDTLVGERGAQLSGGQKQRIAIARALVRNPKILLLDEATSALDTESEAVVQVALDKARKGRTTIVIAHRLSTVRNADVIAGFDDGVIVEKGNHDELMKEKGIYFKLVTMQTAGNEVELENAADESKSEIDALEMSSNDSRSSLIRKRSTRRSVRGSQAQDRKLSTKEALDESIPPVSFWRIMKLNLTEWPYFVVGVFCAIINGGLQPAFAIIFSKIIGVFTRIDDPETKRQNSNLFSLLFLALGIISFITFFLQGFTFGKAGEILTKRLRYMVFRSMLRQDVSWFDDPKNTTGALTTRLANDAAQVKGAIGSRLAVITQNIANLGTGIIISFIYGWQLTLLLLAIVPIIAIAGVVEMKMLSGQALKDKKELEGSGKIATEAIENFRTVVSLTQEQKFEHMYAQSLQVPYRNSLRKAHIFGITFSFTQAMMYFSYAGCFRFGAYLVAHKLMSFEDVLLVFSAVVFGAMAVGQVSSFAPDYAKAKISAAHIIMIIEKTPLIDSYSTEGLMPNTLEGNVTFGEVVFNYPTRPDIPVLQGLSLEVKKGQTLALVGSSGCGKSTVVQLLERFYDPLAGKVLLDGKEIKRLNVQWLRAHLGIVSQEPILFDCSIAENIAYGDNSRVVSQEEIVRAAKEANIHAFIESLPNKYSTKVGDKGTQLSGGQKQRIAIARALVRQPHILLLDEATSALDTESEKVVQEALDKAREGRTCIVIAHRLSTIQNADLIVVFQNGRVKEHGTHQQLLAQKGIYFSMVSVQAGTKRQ
compound,measurement,setting,value
"O=C(O[C@@H]1Cc2c(O)cc(O)cc2O[C@@H]1c1cc(O)c(O)c(O)c1)c1cc(O)c(O)c(O)c1 [EGCG, epigallocatechin gallate, reference compound]","P-gp ATPase activity, fold change relative to basal",[1]; 10 µM,1.4 fold
same,"P-gp ATPase activity, fold change relative to basal",[1]; 70 µM,0.7 fold
same,EC50,"[2]; DOX Resistance, concentration that reduces IC50 of DOX by half",> 10 µM
same,EC50,"[2]; PTX Resistance, concentration that reduces IC50 of PTX by half",> 10 µM
same,EC50,"[3]; read-out: EC50 for Reversing MDR, DOX Resistance, P388ADR, concentration that reduces IC50 of DOX by half",> 10 µM
same,EC50,"[3]; read-out: EC50 for Reversing MDR, PTX Resistance, P388ADR, concentration that reduces IC50 of PTX by half",> 10 µM
same,EC50,"[4]; DOX Resistance, K562/P-gp, concentration that reduces IC50 of DOX by half",> 10 µM
same,EC50,"[4]; VCR Resistance, K562, concentration that reduces IC50 of VCR by half, column head prints K562",> 10 µM
same,EC50,[5],> 10 µM
same,effect on DOX accumulation,[6],no effect
same,LCC6MDR P-gp-modulating activity RF (relative fold),[7],1.2
COc1cc([C@H]2Oc3cc(O)cc(O)c3C[C@H]2OC(=O)c2cc(O)c(O)c(O)c2)cc(O)c1O [EGCG-3′OMe],improvement of P-gp-modulating activity relative to EGCG,[8],2 fold
"CC(=O)O[C@H]1C(=O)[C@@]2(C)[C@H]([C@H](OC(=O)c3ccccc3)[C@]3(O)C[C@H](OC(=O)[C@H](O)[C@@H](NC(=O)c4ccccc4)c4ccccc4)C(C)=C1C3(C)C)[C@]1(OC(C)=O)CO[C@@H]1C[C@@H]2O [PTX, paclitaxel]",IC50,[9],1.9 ± 0.2 nM
same,IC50,"[10]; Homo sapiens, LCC6MDR, 72 h, 3 days incubation",152 ± 9.7 nM
same,RF (relative fold),[10]; IC50 in LCC6MDR relative to LCC6,80.3
same,RF (relative fold),[11]; IC50 in P388ADR relative to P388,28.3
same,IC50,"[11]; Mus musculus, P388/ADR, 72 h, 3 days incubation",1790 ± 139 nM
same,AUC(0-t),[12],6680 ng·h/mL
same,Doubling time,[13],11.1 days
same,"Intracellular EC31 or PTX concentration, LCC6 relative to LCC6MDR",[14]; 1 μM,2.3 ×
same,"Intracellular EC31 or PTX concentration, LCC6 relative to LCC6MDR",[14]; 5 μM,3.4 ×
"COc1cc2c(cc1OC)CN(CCc1ccc(NC(=O)c3cc(OC)c(OC)cc3NC(=O)c3cnc4ccccc4c3)cc1)CC2 [Tariquidar, tariquidar]",stimulation of P-gp ATPase activity,[15],10 fold
